# The list shows a part of the results.
# Experiments:
# Assay in all cases: glycan array binding signal (z-score within array); higher = stronger binding
# Settings in all cases: glycan notation: IUPAC condensed, linker removed
# [1] = target: Fuc(a1-3)GlcNAc
# Summary of the method: (§1)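 The binding signal is a Z-score computed within each array. Data were drawn from 3228 arrays in the Consortium for Functional Glycomics database, restricted to those with a known protein sequence. Scores were averaged over arrays of the same protein sequence at different concentrations or buffers, and over linkers, and negative values can be taken as non-binding.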
# [2] = target: Fuc(a1-3)[Gal(b1-4)]Glc6S
# Summary of the method: as §1
# [3] = target: Fuc(a1-3)[Gal(b1-4)]GlcNAc
# Summary of the method: as §1
# [4] = target: Fuc(a1-3)[Gal(b1-4)]GlcNAc(b1-2)Man
# Summary of the method: as §1
# [5] = target: Fuc(a1-3)[Gal(b1-4)]GlcNAc(b1-2)Man(a1-3)[Fuc(a1-3)[Gal(b1-4)]GlcNAc(b1-2)Man(a1-6)]Man(b1-4)GlcNAc(b1-4)GlcNAc
# Summary of the method: as §1
# [6] = target: Fuc(a1-3)[Gal(b1-4)]GlcNAc(b1-2)Man(a1-3)[Fuc(a1-3)[Gal(b1-4)]GlcNAc(b1-2)Man(a1-6)]Man(b1-4)GlcNAc(b1-4)[Fuc(a1-6)]GlcNAc
# Summary of the method: as §1
# [7] = target: Fuc(a1-3)[Gal(b1-4)]GlcNAc(b1-3)Gal(b1-3)[Fuc(a1-4)]GlcNAc
# Summary of the method: as §1
# [8] = target: Fuc(a1-3)[Gal(b1-4)]GlcNAc(b1-3)Gal(b1-4)[Fuc(a1-3)]GlcNAc
# Summary of the method: as §1
# [9] = target: Fuc(a1-3)[Gal(b1-4)]GlcNAc(b1-3)Gal(b1-4)[Fuc(a1-3)]GlcNAc(b1-3)Gal(b1-4)[Fuc(a1-3)]GlcNAc
# Summary of the method: as §1
# [10] = target: Fuc(a1-3)[Gal(b1-4)]GlcNAc(b1-3)GalNAc
# Summary of the method: as §1
# [11] = target: Fuc(a1-3)[Gal(b1-4)]GlcNAc(b1-6)GalNAc
# Summary of the method: as §1
# [12] = target: Fuc(a1-3)[Gal(b1-4)]GlcNAc(b1-6)[Gal(b1-3)GlcNAc(b1-3)]Gal(b1-4)Glc
# Summary of the method: as §1
# [13] = target: Fuc(a1-3)[Gal(b1-4)]GlcNAc6S
# Summary of the method: as §1
# [14] = target: Fuc(a1-3)[Gal3S(b1-4)]Glc
# Summary of the method: as §1
# [15] = target: Fuc(a1-3)[Gal3S(b1-4)]GlcNAc
# Summary of the method: as §1
# [16] = target: Fuc(a1-3)[Gal3S(b1-4)]GlcNAc6S
# Summary of the method: as §1
# [17] = target: Fuc(a1-3)[GalNAc(b1-4)]GlcNAc
# Summary of the method: as §1
# [18] = target: Fuc(a1-3)[GalNAc(b1-4)]GlcNAc6S
# Summary of the method: as §1
# [19] = target: Fuc(a1-4)GlcNAc
# Summary of the method: as §1
# [20] = target: Fuc(b1-3)GlcNAc
# Summary of the method: as §1
# [21] = target: Gal(a1-2)Gal
# Summary of the method: as §1
# [22] = target: Gal(a1-3)Gal
# Summary of the method: as §1
# [23] = target: Gal(a1-3)Gal(b1-3)GlcNAc
# Summary of the method: as §1
# [24] = target: Gal(a1-3)Gal(b1-3)GlcNAc(b1-2)Man
# Summary of the method: as §1
# [25] = target: Gal(a1-3)Gal(b1-3)GlcNAc(b1-2)Man(a1-3)[Gal(a1-3)Gal(b1-3)GlcNAc(b1-2)Man(a1-6)]Man(b1-4)GlcNAc(b1-4)GlcNAc
# Summary of the method: as §1
# [26] = target: Gal(a1-3)Gal(b1-3)GlcNAc(b1-3)GalNAc
# Summary of the method: as §1
# [27] = target: Gal(a1-3)Gal(b1-3)GlcNAc(b1-6)GalNAc
# Summary of the method: as §1
# [28] = target: Gal(a1-3)Gal(b1-3)[Fuc(a1-4)]GlcNAc(b1-2)Man(a1-3)[Gal(a1-3)Gal(b1-3)[Fuc(a1-4)]GlcNAc(b1-2)Man(a1-6)]Man(b1-4)GlcNAc(b1-4)GlcNAc
# Summary of the method: as §1
# [29] = target: Gal(a1-3)Gal(b1-4)Glc
# Summary of the method: as §1
# [30] = target: Gal(a1-3)Gal(b1-4)GlcNAc
# Summary of the method: as §1
# [31] = target: Gal(a1-3)Gal(b1-4)GlcNAc(b1-2)Man
# Summary of the method: as §1
# [32] = target: Gal(a1-3)Gal(b1-4)GlcNAc(b1-2)Man(a1-3)[Gal(a1-3)Gal(b1-4)GlcNAc(b1-2)Man(a1-6)]Man(b1-4)GlcNAc(b1-4)GlcNAc
# Summary of the method: as §1
# [33] = target: Gal(a1-3)Gal(b1-4)GlcNAc(b1-3)GalNAc
# Summary of the method: as §1
# [34] = target: Gal(a1-3)Gal(b1-4)GlcNAc(b1-6)GalNAc
# Summary of the method: as §1
# [35] = target: Gal(a1-3)Gal(b1-4)[Fuc(a1-3)]GlcNAc
# Summary of the method: as §1
# [36] = target: Gal(a1-3)Gal(b1-4)[Fuc(a1-3)]GlcNAc(b1-2)Man(a1-3)[Gal(a1-3)Gal(b1-4)[Fuc(a1-3)]GlcNAc(b1-2)Man(a1-6)]Man(b1-4)GlcNAc(b1-4)GlcNAc
# Summary of the method: as §1
# [37] = target: Gal(a1-3)GalNAc
# Summary of the method: as §1
# [38] = target: Gal(a1-3)[Gal(a1-4)]Gal(b1-4)GlcNAc
# Summary of the method: as §1
# [39] = target: Gal(a1-4)Gal(b1-3)GlcNAc(b1-2)Man(a1-3)[Gal(a1-4)Gal(b1-3)GlcNAc(b1-2)Man(a1-6)]Man(b1-4)GlcNAc(b1-4)GlcNAc
# Summary of the method: as §1
# [40] = target: Gal(a1-4)Gal(b1-4)Glc
# Summary of the method: as §1
# [41] = target: Gal(a1-4)Gal(b1-4)GlcNAc
# Summary of the method: as §1
# [42] = target: Gal(a1-4)Gal(b1-4)GlcNAc(b1-2)Man(a1-3)[Gal(a1-4)Gal(b1-4)GlcNAc(b1-2)Man(a1-6)]Man(b1-4)GlcNAc(b1-4)GlcNAc
# Summary of the method: as §1
# [43] = target: Gal(a1-4)Gal(b1-4)GlcNAc(b1-3)Gal(b1-4)Glc
# Summary of the method: as §1
# [44] = target: Gal(a1-4)GlcNAc
# Summary of the method: as §1
# [45] = target: Gal(a1-6)Glc
# Summary of the method: as §1
# [46] = target: Gal(b1-2)Gal
# Summary of the method: as §1
# [47] = target: Gal(b1-3)Gal
# Summary of the method: as §1
# [48] = target: Gal(b1-3)Gal(b1-4)GlcNAc
# Summary of the method: as §1
# [49] = target: Gal(b1-3)GalNAc
# Summary of the method: as §1
# [50] = target: Gal(b1-3)GalNAc(a1-3)[Fuc(a1-2)]Gal(b1-4)Glc
# Summary of the method: as §1
# [51] = target: Gal(b1-3)GalNAc(a1-3)[Fuc(a1-2)]Gal(b1-4)GlcNAc
# Summary of the method: as §1
# [52] = target: Gal(b1-3)GalNAc(b1-3)Gal
# Summary of the method: as §1
# [53] = target: Gal(b1-3)GalNAc(b1-3)Gal(a1-4)Gal(b1-4)Glc
# Summary of the method: as §1
# [54] = target: Gal(b1-3)GalNAc(b1-4)Gal(b1-4)Glc
# Summary of the method: as §1
# [55] = target: Gal(b1-3)GalNAc(b1-4)[Neu5Ac(a2-3)]Gal(b1-4)Glc
# Summary of the method: as §1
# [56] = target: Gal(b1-3)GlcNAc
# Summary of the method: as §1
# [57] = target: Gal(b1-3)GlcNAc(a1-3)Gal(b1-4)GlcNAc
# Summary of the method: as §1
# [58] = target: Gal(b1-3)GlcNAc(a1-6)Gal(b1-4)GlcNAc
# Summary of the method: as §1
# [59] = target: Gal(b1-3)GlcNAc(b1-2)Man
# Summary of the method: as §1
# [60] = target: Gal(b1-3)GlcNAc(b1-2)Man(a1-3)[Gal(b1-3)GlcNAc(b1-2)Man(a1-6)]Man(b1-4)GlcNAc(b1-4)GlcNAc
# Summary of the method: as §1
binder,measurement,setting,value
SialidaseA (Arthrobacter ureafaciens) (protein) MRSNSTSAPSLVRRAATGVLTCAVSIGLLAGLGLPAQAAPTPPNSPTLPPGSFSETNLAADRTAANFFYRIPALTYLGNDVVLAAWDGRPGSAADAPNPNSIVQRRSTDGGKTWGPVQVIAAGHVADASGPRYGYSDPSYIYDAEANKVFAFFVYSKDQGFGGSQFGNDDADRNVISSAVIESSDAGVTWSQPRLITSVTKPGTSKTNPAAGDVRSNFASSGEGIQLKYGPHKGRLIQQYAGDVRQADGSNKIQAYSVYSDDHGVTWHKGANVGDRMDENKTVELSDGRVLLNSRDNANRGYRKVAVSTDGGATYGPVSQDTELPDPANNGAIARMFPNAAQGSADAKKLIFTNANSKTGRENVSARVSCDDGETWPGVRTIRSGFSAYSTVTRLADGKFGVLYEGNYTDNMPFATFDDAWLNYVCAPLAVPAVNIAPSATQEVPVTVTNQEATTLSGATATVYTPSGWSATTVPVPDVAPGASVTVTVALTAPADASGPRSLNAAFTTADGRVSQFTFTATTPVAPQVGLTITGSAPARDVAANPYQAGDVLGYTLNVKSTANVAANSVPLTGTFDSGFLPPAAPNCRYNNLAAGASYNCTTAKHTITAADMERGYFVPEATFSITSTTTPSLTKTVQFTGAAVALRDGLISADISGARTDVGRDLATRPYAAGELVPYAFTVKNTSPFVEQVVPTAGNFSPFLPAGAGNCRYLSLPAGQSYECATPRHAVTAEEVEQGFFVPDTTWEVSAAGQSTRTYRINGGEVDLLVRDAALSATVVAEWKDADGDRFASAGDPVTFTYTVGNAGNVALTGLEAPDAGISLPFLAPGDTATATREHVLTAADVAGGSLAASAFEATARNGSKEVTATAEGQPLELKVQPAQPSKEPELTVQDLEDQTPPFDLGTAFKYRTGQKVSLAGLEYGQWYYVYLNKTGYRLGWMFPTTGDTVEFILPPEVRNGRDDVVVLDKDGRRVSFDRLQVTPKGEKI,glycan array binding signal (z-score),[1],-0.8
same,glycan array binding signal (z-score),[2],-0.604
same,glycan array binding signal (z-score),[3],-0.438
same,glycan array binding signal (z-score),[4],-0.877
same,glycan array binding signal (z-score),[5],-0.677
same,glycan array binding signal (z-score),[6],-0.138
same,glycan array binding signal (z-score),[7],-0.767
same,glycan array binding signal (z-score),[8],-0.612
same,glycan array binding signal (z-score),[9],-0.257
same,glycan array binding signal (z-score),[10],-0.515
same,glycan array binding signal (z-score),[11],-0.571
same,glycan array binding signal (z-score),[12],-0.73
same,glycan array binding signal (z-score),[13],-0.53
same,glycan array binding signal (z-score),[14],-0.726
same,glycan array binding signal (z-score),[15],-0.8
same,glycan array binding signal (z-score),[16],-0.359
same,glycan array binding signal (z-score),[17],-0.38
same,glycan array binding signal (z-score),[18],-0.682
same,glycan array binding signal (z-score),[19],-0.465
same,glycan array binding signal (z-score),[20],-0.514
same,glycan array binding signal (z-score),[21],-0.616
same,glycan array binding signal (z-score),[22],-0.532
same,glycan array binding signal (z-score),[23],-0.563
same,glycan array binding signal (z-score),[24],-0.414
same,glycan array binding signal (z-score),[25],0.062
same,glycan array binding signal (z-score),[26],-0.722
same,glycan array binding signal (z-score),[27],-0.605
same,glycan array binding signal (z-score),[28],-0.047
same,glycan array binding signal (z-score),[29],-0.505
same,glycan array binding signal (z-score),[30],-0.53
same,glycan array binding signal (z-score),[31],-0.819
same,glycan array binding signal (z-score),[32],0.472
same,glycan array binding signal (z-score),[33],-0.615
same,glycan array binding signal (z-score),[34],-0.682
same,glycan array binding signal (z-score),[35],-0.607
same,glycan array binding signal (z-score),[36],-0.788
same,glycan array binding signal (z-score),[37],-0.822
same,glycan array binding signal (z-score),[38],-0.227
same,glycan array binding signal (z-score),[39],-0.146
same,glycan array binding signal (z-score),[40],-0.614
same,glycan array binding signal (z-score),[41],-0.33
same,glycan array binding signal (z-score),[42],0.431
same,glycan array binding signal (z-score),[43],-0.51
same,glycan array binding signal (z-score),[44],-0.583
same,glycan array binding signal (z-score),[45],-0.881
same,glycan array binding signal (z-score),[46],-0.598
same,glycan array binding signal (z-score),[47],-0.451
same,glycan array binding signal (z-score),[48],-0.643
same,glycan array binding signal (z-score),[49],-0.587
same,glycan array binding signal (z-score),[50],-0.388
same,glycan array binding signal (z-score),[51],-0.72
same,glycan array binding signal (z-score),[52],-0.833
same,glycan array binding signal (z-score),[53],-0.431
same,glycan array binding signal (z-score),[54],-0.529
same,glycan array binding signal (z-score),[55],1.65
same,glycan array binding signal (z-score),[56],-0.604
same,glycan array binding signal (z-score),[57],-0.431
same,glycan array binding signal (z-score),[58],-0.544
same,glycan array binding signal (z-score),[59],-0.135
same,glycan array binding signal (z-score),[60],0.441

# Reference: the supplement of paper PMC8728848
